Test results taken from the supplement of paper PMC12578646, “Prodrug florfenicol amine is activated by intrinsic resistance to target Mycobacterium abscessus” (Nature Microbiology, 2025).
Converted amounts (≈) assume the structure as drawn. ± gives the standard deviation of the averaged measurements. M. abscessus ATCC 19977 and its deletion, point and complemented mutants after 5 days of drug at 37 °C plus 24 h of resazurin. Growth in % of untreated wells at the dose given (lower = more inhibition); checkerboards give % inhibition (higher = more inhibition); IC50 from the fitted curve (lower = more potent). No active / inactive call. IC50 values come from the same 384-well curves. Growth is not capped and can exceed 100%. The direction of the checkerboard scale is read from the raw signals. Capreomycin is a mixture.

Tests used:
[1] = system: Mycobacterium abscessus ATCC 19977 WhiB7 A51T
Method: (§1)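 384-well two-fold dose series, two replicates; 5 days at 37 °C, then 24 h with resazurin; fluorescence scaled to growth and killed controls.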

[2] = system: Mycobacterium abscessus ATCC 19977 WhiB7 R76del
Method: as §1

[3] = system: Mycobacterium abscessus ATCC 19977 WhiB7 L37P
Method: as §1

[4] = system: Mycobacterium abscessus ATCC 19977 Eis2 T258R
Method: as §1

[5] = system: Mycobacterium abscessus ATCC 19977 Eis2 Y227D
Method: as §1

[6] = system: Mycobacterium abscessus ATCC 19977 Eis2 Y255*
Method: as §1

[7] = system: Mycobacterium abscessus ATCC 19977 Eis2 E120fs
Method: as §1

[8] = system: Mycobacterium abscessus ATCC 19977 ΔwhiB7
Method: as §1

[9] = system: Mycobacterium abscessus ATCC 19977 Δeis2
Method: as §1

[10] = system: Mycobacterium abscessus ATCC 19977 WhiB7 F24fs
Method: as §1

[11] = system: Mycobacterium abscessus ATCC 19977 Eis2 Y284*
Method: as §1

[12] = system: Mycobacterium abscessus ATCC 19977 WhiB7 T70fs
Method: as §1

[13] = system: Mycobacterium abscessus ATCC 19977 WhiB7 A51T; assay: growth relative to untreated wells; higher = more growth (less inhibition)
Method: as §1

[14] = system: Mycobacterium abscessus ATCC 19977 Δcat; assay: growth relative to untreated wells; higher = more growth
Method: (§2)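 Two-fold dose series, three replicates; 5 days at 37 °C, then 24 h with resazurin; fluorescence scaled to growth and killed controls.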

[15] = system: Mycobacterium abscessus ATCC 19977 ΔwhiB7; assay: as above
Method: as §2

[16] = system: Mycobacterium abscessus ATCC 19977; assay: as above
Method: as §2

NC[C@H]1O[C@H](O[C@H]2[C@H](O)[C@@H](O[C@H]3O[C@H](CO)[C@@H](O)[C@H](N)[C@H]3O)[C@H](N)C[C@@H]2N)[C@H](O)[C@@H](O)[C@@H]1O [kanamycin A]
Details | IC50 [µg/mL]
[1] | 0.429 (≈ 0.886 µM)
[2] | 0.423 (≈ 0.872 µM)
[3] | 0.314 (≈ 0.648 µM)
[4] | 0.45 (≈ 0.928 µM)
[5] | 0.468 (≈ 0.966 µM)
[6] | 0.49 (≈ 1.01 µM)
[7] | 0.543 (≈ 1.12 µM)
[8] | 0.267 (≈ 0.551 µM)
[9] | 0.437 (≈ 0.902 µM)
[10] | 0.42 (≈ 0.868 µM)
[11] | 0.49 (≈ 1.01 µM)
[12] | 0.316 (≈ 0.652 µM)

[13]
Details | growth [%]
0.03125 µg/mL | 110 ± 3.9
0.0625 µg/mL | 122 ± 4.3
0.125 µg/mL | 124 ± 4.5
0.25 µg/mL | 135 ± 1.8
0.5 µg/mL | 1.23 ± 1.4
1 µg/mL | -0.407 ± 0.42
2 µg/mL | -0.628 ± 0.74
4 µg/mL | -1.3 ± 0.22
8 µg/mL | -1.6 ± 0.37
16 µg/mL | -0.757 ± 0.33
32 µg/mL | -0.418 ± 0.69
64 µg/mL | 0.756 ± 0.74

NC[C@H]1O[C@H](O[C@H]2[C@H](O)[C@@H](O[C@H]3O[C@H](CO)[C@@H](O)[C@H](N)[C@H]3O)[C@H](N)C[C@@H]2N)[C@H](N)[C@@H](O)[C@@H]1O [kanamycin B]
Details | IC50 [µg/mL]
[1] | 1.72 (≈ 3.56 µM)
[2] | 1.56 (≈ 3.23 µM)
[3] | 1.27 (≈ 2.64 µM)
[4] | 2.63 (≈ 5.43 µM)
[5] | 3.38 (≈ 6.99 µM)
[6] | 2.5 (≈ 5.18 µM)
[7] | 3.46 (≈ 7.15 µM)
[8] | 1.23 (≈ 2.55 µM)
[9] | 2.48 (≈ 5.14 µM)
[10] | 1.72 (≈ 3.56 µM)
[11] | 2.55 (≈ 5.28 µM)
[12] | 1.73 (≈ 3.59 µM)

[13]
Details | growth [%]
0.03125 µg/mL | 107 ± 3.8
0.0625 µg/mL | 123 ± 4.5
0.125 µg/mL | 107 ± 6
0.25 µg/mL | 116 ± 6.3
0.5 µg/mL | 123 ± 3.1
1 µg/mL | 132 ± 4.6
2 µg/mL | 2.15 ± 0.24
4 µg/mL | -0.466 ± 0.58
8 µg/mL | -0.664 ± 0.49
16 µg/mL | -0.101 ± 0.55
32 µg/mL | 0.369 ± 0.29
64 µg/mL | 0.893 ± 0.34

CC(=O)NC[C@H]1CN(c2ccc(N3CCOCC3)c(F)c2)C(=O)O1 [linezolid]
Details | IC50 [µg/mL]
[1] | 4.75 (≈ 14.1 µM)
[2] | 3.67 (≈ 10.9 µM)
[3] | 4.66 (≈ 13.8 µM)
[4] | 3.19 (≈ 9.45 µM)
[5] | 4.13 (≈ 12.2 µM)
[6] | 3.67 (≈ 10.9 µM)
[7] | 3.72 (≈ 11 µM)
[8] | 5.02 (≈ 14.9 µM)
[9] | 3.09 (≈ 9.16 µM)
[10] | 3.66 (≈ 10.8 µM)
[11] | 3.56 (≈ 10.5 µM)
[12] | 3.73 (≈ 11.1 µM)

[13]
Details | growth [%]
0.125 µg/mL | 95.8 ± 6.1
0.25 µg/mL | 107 ± 4.8
0.5 µg/mL | 103 ± 8
1 µg/mL | 118 ± 4.8
2 µg/mL | 127 ± 5.5
4 µg/mL | 68.8 ± 12
8 µg/mL | 8.82 ± 6.8
16 µg/mL | -2.94 ± 0.69
32 µg/mL | 6.84 ± 15
64 µg/mL | -3.23 ± 0.54
128 µg/mL | -2.79 ± 0.43
256 µg/mL | -2.78 ± 0.23

CN(C)c1cc(CNCC(C)(C)C)c(O)c2c1C[C@H]1C[C@H]3[C@H](N(C)C)C(O)=C(C(N)=O)C(=O)[C@@]3(O)C(O)=C1C2=O [omadacycline]
Details | IC50 [µg/mL]
[1] | 0.61 (≈ 1.1 µM)
[2] | 0.482 (≈ 0.865 µM)
[3] | 0.505 (≈ 0.908 µM)
[4] | 0.92 (≈ 1.65 µM)
[5] | 0.889 (≈ 1.6 µM)
[6] | 0.908 (≈ 1.63 µM)
[7] | 0.921 (≈ 1.65 µM)
[8] | 0.557 (≈ 1 µM)
[9] | 0.845 (≈ 1.52 µM)
[10] | 0.476 (≈ 0.855 µM)
[11] | 1.01 (≈ 1.82 µM)
[12] | 0.497 (≈ 0.893 µM)

[13]
Details | growth [%]
0.00625 µg/mL | 92.9 ± 6.1
0.0125 µg/mL | 102 ± 5.9
0.025 µg/mL | 87.18 ± 0.66
0.05 µg/mL | 103 ± 3
0.1 µg/mL | 82 ± 4
0.2 µg/mL | 93.9 ± 5.3
0.4 µg/mL | 102 ± 12
0.8 µg/mL | 9.62 ± 15
1.6 µg/mL | -7.13 ± 0.6
3.2 µg/mL | -9.19 ± 0.77
6.4 µg/mL | -9.64 ± 0.26
12.8 µg/mL | -9.55 ± 0.85

CN[C@@H]1[C@H](O)[C@H](NC)[C@H]2O[C@@]3(O)C(=O)C[C@@H](C)O[C@H]3O[C@@H]2[C@H]1O [spectinomycin]
Details | IC50 [µg/mL]
[1] | 35 (≈ 105 µM)
[2] | 30.6 (≈ 92.2 µM)
[3] | 29.5 (≈ 88.6 µM)
[4] | 207 (≈ 623 µM)
[5] | 223 (≈ 671 µM)
[6] | 234 (≈ 703 µM)
[7] | 312 (≈ 939 µM)
[8] | 30.2 (≈ 90.8 µM)
[9] | 260 (≈ 784 µM)
[10] | 29.6 (≈ 89 µM)
[11] | 247 (≈ 743 µM)
[12] | 31.4 (≈ 94.4 µM)

[13]
Details | growth [%]
0.5 µg/mL | 94.9 ± 11
1 µg/mL | 117 ± 3.3
2 µg/mL | 107 ± 2
4 µg/mL | 130 ± 1.9
8 µg/mL | 138 ± 4.6
16 µg/mL | 143 ± 3.9
32 µg/mL | 62.6 ± 21
64 µg/mL | 3.53 ± 1.4
128 µg/mL | 0.0667 ± 1.4
256 µg/mL | -0.071 ± 1
512 µg/mL | 0.197 ± 1.6
1024 µg/mL | 1.77 ± 1.3

CS(=O)(=O)c1ccc([C@@H](O)[C@@H](CO)NC(=O)C(Cl)Cl)cc1 [thiamphenicol]
Details | IC50 [µg/mL]
[1] | 31.1 (≈ 87.3 µM)
[2] | 28.3 (≈ 79.3 µM)
[3] | 30 (≈ 84.3 µM)
[4] | 533 (≈ 1500 µM)
[5] | 992 (≈ 2780 µM)
[6] | 821 (≈ 2300 µM)
[7] | 987 (≈ 2770 µM)
[8] | 41.8 (≈ 117 µM)
[9] | 534 (≈ 1500 µM)
[10] | 28.1 (≈ 79 µM)
[11] | 715 (≈ 2010 µM)
[12] | 28.5 (≈ 80 µM)

growth [%]
Details | [13] | [14] | [15] | [16]
0.5 µg/mL | 105 ± 8.8 | – | – | –
1 µg/mL | 110 ± 7.3 | 91.1 ± 6.4 | 97.6 ± 7.8 | 111 ± 12
2 µg/mL | 108 ± 11 | 85.8 ± 17 | 99 ± 5.6 | 99.4 ± 4.6
4 µg/mL | 117 ± 3.7 | 87.1 ± 16 | 92.5 ± 7.5 | 98.3 ± 4.5
8 µg/mL | 113 ± 6 | 91.6 ± 10 | 96.9 ± 14 | 99.7 ± 4.8
16 µg/mL | 124.5 ± 0.48 | 82.2 ± 15 | 97.4 ± 3.1 | 94.1 ± 7.9
32 µg/mL | 44.3 ± 20 | 76 ± 9.6 | 95 ± 14 | 102 ± 4.6
64 µg/mL | 12.4 ± 9.9 | 60.5 ± 19 | 78.9 ± 3.4 | 102 ± 8.7
128 µg/mL | 0.413 ± 2.3 | 30.7 ± 13 | 11.6 ± 4.2 | 103 ± 7.4
256 µg/mL | -1.66 ± 0.55 | 3.58 ± 2.1 | 1.57 ± 4.1 | 104 ± 4.4
512 µg/mL | -1.59 ± 0.89 | 3.23 ± 4.7 | 1.8 ± 0.81 | 103 ± 1.4
1024 µg/mL | -0.972 ± 0.69 | – | – | –

CN(C)c1cc(NC(=O)CNC(C)(C)C)c(O)c2c1C[C@H]1C[C@H]3[C@H](N(C)C)C(O)=C(C(N)=O)C(=O)[C@@]3(O)C(O)=C1C2=O [tigecycline]
Details | IC50 [µg/mL]
[1] | 0.909 (≈ 1.55 µM)
[2] | 0.917 (≈ 1.57 µM)
[3] | 0.904 (≈ 1.54 µM)
[4] | 1.1 (≈ 1.88 µM)
[5] | 1.42 (≈ 2.43 µM)
[6] | 1.71 (≈ 2.91 µM)
[7] | 1.62 (≈ 2.77 µM)
[8] | 1.01 (≈ 1.72 µM)
[9] | 1.01 (≈ 1.73 µM)
[10] | 0.886 (≈ 1.51 µM)
[11] | 1.35 (≈ 2.31 µM)
[12] | 0.898 (≈ 1.53 µM)

[13]
Details | growth [%]
0.00390625 µg/mL | 103 ± 3.3
0.0078125 µg/mL | 105 ± 11
0.015625 µg/mL | 99.9 ± 5.3
0.03125 µg/mL | 104 ± 4.8
0.0625 µg/mL | 85.5 ± 15
0.125 µg/mL | 104 ± 9
0.25 µg/mL | 122 ± 2.5
0.5 µg/mL | 132 ± 2.9
1 µg/mL | 16.2 ± 3.3
2 µg/mL | -4.86 ± 0.95
4 µg/mL | -7.94 ± 0.73
